Laboratory results: the supplement of paper PMC8512760
Where a name gives a salt, the structure may show the parent alone. The list shows a part of the results. Many values rest on one well or one pass, so single values are uncertain.

How the values were obtained:
Assay in all cases: cell viability relative to vehicle (% of vehicle); basal-like triple-negative breast cancer lines; higher = less cytotoxic
Details in all cases: 10 µM; 72 h
[1] = test system: HCC-1143
[2] = test system: HCC-1187
[3] = test system: MDA-468
[4] = test system: SUM-149
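Note: stably firefly luciferase-GFP labeled cells in 96-well plates, viability read as luciferase photon flux after d-luciferin addition, treated wells normalized to vehicle wells, single-dose high-throughput screen.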

For `C=C[C@]1(C)C[C@@H](OC(=O)CSC(C)(C)CNC(=O)[C@H](N)C(C)C)[C@]2(C)[C@H](C)CC[C@]3(CCC(=O)[C@H]32)[C@@H](C)[C@@H]1O` [Valnemulin HCl], which cell viability [1] is on record?
Its cell viability is 63.6.

What about the cell viability [2] of the same compound?
Its cell viability is 95.

And the cell viability [3]?
Its cell viability is 104.

What about the cell viability [4] of the same compound?
The cell viability was 102.

Which cell viability [1] does the source give for `CC(CCC(=O)O)C1CCC2C3CCC4CC(O)CCC4(C)C3CC(O)C12C` (configuration not stated) [Deoxycholic acid] here?
Its cell viability is 77.3.

And the cell viability [2]?
The cell viability was 81.5.

And the cell viability [3]?
The cell viability was 115.

And the cell viability [4]?
Its cell viability is 108.

How did the cell viability [1] turn out when `c1ccc(-c2ccc(C(c3ccccc3)n3ccnc3)cc2)cc1` (configuration not stated) [Bifonazole] was run?
Its cell viability is 86.3.

What about the cell viability [2] of the same compound?
The cell viability was 99.5.

And the cell viability [3]?
Its cell viability is 130.

And the cell viability [4]?
The cell viability was 140.

With `Cl.NC1=NCC2c3ccccc3Cc3ccccc3N12` (configuration not stated) [Epinastine HCl] as the compound, how does the cell viability [1] read?
The cell viability was 75.8.

What about the cell viability [2] of the same compound?
Its cell viability is 89.1.

What about the cell viability [3] of the same compound?
The cell viability was 88.6.

And the cell viability [4]?
The cell viability was 88.3.

With `COc1ccc(-n2nc(C(N)=O)c3c2C(=O)N(c2ccc(N4CCCCC4=O)cc2)CC3)cc1` [Apixaban] as the compound, how does the cell viability [1] read?
The cell viability was 99.

What about the cell viability [2] of the same compound?
Its cell viability is 86.7.

What about the cell viability [3] of the same compound?
The cell viability was 87.7.

What about the cell viability [4] of the same compound?
The cell viability was 102.

With `COC(=O)C12CCC(C)(C)CC1C1C(=O)C=C3C4(C)C=C(C#N)C(=O)C(C)(C)C4CCC3(C)C1(C)CC2` (configuration not stated) [Bardoxolone methyl] as the compound, how does the cell viability [1] read?
Its cell viability is 23.9.

And the cell viability [2]?
The cell viability was 19.9.

What about the cell viability [3] of the same compound?
Its cell viability is 23.

What about the cell viability [4] of the same compound?
Its cell viability is 35.

How did the cell viability [1] turn out when `O=c1ccn(C2OC(CO)C(O)C2O)c(=O)[nH]1` (configuration not stated) [Uridine] was run?
Its cell viability is 112.

What about the cell viability [2] of the same compound?
Its cell viability is 85.3.

And the cell viability [3]?
The cell viability was 111.

And the cell viability [4]?
The cell viability was 112.

Which results are given for `O=C(O)CSCC(=O)NC1CCSC1=O` (configuration not stated) [Erdosteine]?
cell viability [1]: 91.5; cell viability [2]: 78; cell viability [3]: 104; cell viability [4]: 138

Which cell viability [1] does the source give for `Cl.O=C1CN2Cc3c(ccc(Cl)c3Cl)NC2=N1` [Anagrelide HCl] here?
The cell viability was 106.

What about the cell viability [2] of the same compound?
Its cell viability is 73.5.

And the cell viability [3]?
The cell viability was 93.5.

What about the cell viability [4] of the same compound?
Its cell viability is 107.

Which results are given for `CCCOc1ccc(C(=O)OCCN(CC)CC)cc1N.Cl` [Proparacaine HCl]?
cell viability [1]: 68.2; cell viability [2]: 100; cell viability [3]: 106; cell viability [4]: 98.4

Which results are given for `CC1c2cccc(O)c2C(O)=C2C(=O)C3(O)C(O)=C(C(N)=O)C(=O)C(N(C)C)C3C(O)C21.Cl` (configuration not stated) [Doxycycline hyclate]?
cell viability [1]: 76.4; cell viability [2]: 62.2; cell viability [3]: 66.4; cell viability [4]: 93.5

How did the cell viability [1] turn out when `CCC1(O)CC2CN(CCc3c([nH]c4ccccc34)C(C(=O)OC)(c3cc4c(cc3OC)N(C)C3C(O)(C(=O)OC)C(OC(C)=O)C5(CC)C=CCN6CCC43C65)C2)C1.O=S(=O)(O)O` (configuration not stated) [Vinblastine sulfate] was run?
The cell viability was 62.6.

What about the cell viability [2] of the same compound?
The cell viability was 55.5.

What about the cell viability [3] of the same compound?
Its cell viability is 116.

And the cell viability [4]?
The cell viability was 108.

Which results are given for `C[C@H]1O[C@@H](O[C@H]2[C@@H](O)C[C@H](O[C@H]3[C@@H](O)C[C@H](O[C@H]4CC[C@@]5(C)[C@H](CC[C@@H]6[C@@H]5C[C@@H](O)[C@]5(C)[C@@H](C7=CC(=O)OC7)CC[C@]65O)C4)O[C@@H]3C)O[C@@H]2C)C[C@H](O)[C@@H]1O` [Digoxin]?
cell viability [1]: 26.4; cell viability [2]: 25.3; cell viability [3]: 31.5; cell viability [4]: 30

Which results are given for `CN(CCOc1ccc(CC2SC(=O)NC2=O)cc1)c1ccccn1.O=C(O)C=CC(=O)O` (configuration not stated) [Rosiglitazone maleate]?
cell viability [1]: 98.5; cell viability [2]: 104; cell viability [3]: 96.1; cell viability [4]: 148

How did the cell viability [1] turn out when `C=CC1=C(C(=O)O)N2C(=O)C(NC(=O)C(=NO)c3csc(N)n3)C2SC1` (configuration not stated) [Cefdinir] was run?
The cell viability was 81.

What about the cell viability [2] of the same compound?
Its cell viability is 109.

What about the cell viability [3] of the same compound?
The cell viability was 104.

What about the cell viability [4] of the same compound?
Its cell viability is 98.7.

For `CCCc1nc(C(C)(C)O)c(C(=O)OCc2oc(=O)oc2C)n1Cc1ccc(-c2ccccc2-c2nn[nH]n2)cc1` [Olmesartan medoxomil], which cell viability [1] is on record?
The cell viability was 113.

What about the cell viability [2] of the same compound?
The cell viability was 75.4.

And the cell viability [3]?
The cell viability was 105.

What about the cell viability [4] of the same compound?
The cell viability was 142.

Which results are given for `Cc1nc2n(c(=O)c1CCN1CCC(c3noc4cc(F)ccc34)CC1)CCCC2` [Risperidone]?
cell viability [1]: 77.3; cell viability [2]: 102; cell viability [3]: 123; cell viability [4]: 117

With `Cl.O=C1CC2(CCCC2)CC(=O)N1CCCCN1CCN(c2ncccn2)CC1` [Buspirone HCl] as the compound, how does the cell viability [1] read?
Its cell viability is 86.6.

And the cell viability [2]?
Its cell viability is 108.

What about the cell viability [3] of the same compound?
Its cell viability is 89.5.

What about the cell viability [4] of the same compound?
The cell viability was 84.
